According to PMC12040169 (PLOS Biology, 2025):
The other results are listed elsewhere or left out.

tested on: T1, C. trachomatis L2/434/Bu expressing GFP (CTL2-GFP); parameters: species or system HeLa; C. trachomatis total inclusion area by high-content imaging, normalised to DMSO; settings: total inclusion area; 28.5 h, 10 µM; inhibitor
T1 construct: L2/434/Bu GFP intracellular growth in HeLa cells
Outline: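 Post-fluorescence-read fixation, DNA staining with Hoechst and high-content imaging; GFP inclusion area and number per well, and nuclei counts, used as proxies for bacterial growth and host viability.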

Compared with `c1nc(Nc2ccc3[nH]ccc3c2)cc(-c2ccc(N3CCOCC3)cc2)n1` [CBK090851], `CCCCNC(=O)Nc1ncc(-c2ccc(C#N)cc2)nc1-c1ccc(C(=O)N2CCOCC2)cc1` [CBK105766] is higher in “% of control remaining” value: 57.3587 for the first, 79.7981 for the second.

First: Cc1cc(OCC(=O)N2CCC(C(=O)Nc3ccccc3)CC2)no1 [CBK305067]
Second: COc1cc(OC)nc(C(NC(=O)C2CCN(C(=O)c3ccno3)CC2)c2ccc(Cl)cc2)n1 (stereo not drawn) [CBK060169]
The “% of control remaining” value of the first is lower: 88.5527 for the first, 100.616 for the second.

Compared with `CCc1noc(C)c1C(=O)N1CCN(C(C#N)C2CCCCC2)CC1` (stereo not drawn) [CBK304916], `Cc1noc(C)c1C(=O)N1CCN(Cc2ccccc2)CC1` [CBK200173] is higher in “% of control remaining” value: 81.6603 for the first, 92.169 for the second.

Compared with `Cc1ccc(NC(=O)C(=O)NCCCN2CCOCC2)cc1C` [CBK264836], `CCC(C(=O)NCCCN1CCOCC1)c1ccccc1` (stereo not drawn) [CBK265103] is higher in “% of control remaining” value: 99.236 for the first, 124.535 for the second.

Compared with `CC(=O)Nc1ccc(S(=O)(=O)N2CCN(c3ccc(C(F)(F)F)cc3[N+](=O)[O-])CC2)cc1` [CBK264293], `O=C(COC(=O)C1CCN(S(=O)(=O)c2cccc3cccnc23)CC1)c1ccc([N+](=O)[O-])cc1` [CBK264412] is higher in “% of control remaining” value: 91.751 for the first, 110.902 for the second.

Compared with `CC(=O)Nc1cccc(NC(=O)N2CCCCC2CO)c1` (stereo not drawn) [CBK156181], `CNS(=O)(=O)c1cccc(C(C)NC(=O)N2CCC(COC)CC2)c1` (stereo not drawn) [CBK304087] is lower in “% of control remaining” value: 102.502 for the first, 40.5314 for the second.

First: O=C1CC(SCCc2nc3ccccc3[nH]2)C(=O)N1c1cccc(F)c1 (stereo not drawn) [CBK266671]
Second: S=c1[nH]nc(CSc2nc3ccccc3[nH]2)n1-c1ccccc1 [CBK267133]
The “% of control remaining” value of the first is higher: 114.483 for the first, 88.4153 for the second.

Going from `O=C(O)c1cc(S(=O)(=O)Nc2ccc3nc(N4CCCC4)sc3c2)ccc1Br` [CBK296710] to `COc1cc(C(=O)N2CCC3(CC2)CC(=O)c2ccc(-c4ccc(NS(C)(=O)=O)cc4)cc2O3)cc(OC)c1C` [CBK170163], the “% of control remaining” value rises from 75.4487 to 103.151.

First: Cc1cc2c(cc3c(=O)n(CC(=O)NC4CC4)nc(C)n32)s1 [CBK284067]
Second: CC(C)(C)OC(=O)N1CCC(CNS(=O)(=O)c2cc(Cl)sc2Cl)CC1 [CBK086018]
The “% of control remaining” value of the first is lower: 90.2458 for the first, 97.2021 for the second.

First: Cc1cccc(-c2ncc(C(=O)Nc3nccs3)cc2-c2ccco2)c1 [CBK037427]
Second: O=C(O)c1cc(-c2ccco2)nc2ccccc12 [CBK027882]
The “% of control remaining” value of the first is lower: 88.0499 for the first, 101.526 for the second.

Compared with `COc1ccc(-c2[nH]c3ncccc3c2CN2CCSCC2)cc1` [CBK285338], `COc1ccc(-c2cc(CC3(NC(C)=O)COC3)no2)cc1` [CBK289428] is higher in “% of control remaining” value: 87.1858 for the first, 95.1683 for the second.

Going from `COC(=O)c1ccccc1Oc1nc(OC)cc(OC)n1` [CBK092217] to `CC(C)(Oc1cccc2ccccc12)C(=O)O` [CBK012409], the “% of control remaining” value rises from 104.837 to 108.887.

Compared with `CC(C)Cn1cncc1CN1C(=O)CC2(CCCC2)CC1=O` [CBK306600], `O=C(c1cccnc1)N1CCCC2(CCN(C(=O)c3ccoc3)C2)C1` (stereo not drawn) [CBK131640] is lower in “% of control remaining” value: 95.0665 for the first, 88.4712 for the second.

Compared with `CCCC(=O)Nc1nc(-c2ccc(C)cc2)c(C)s1` [CBK287763], `COc1ccc(C)cc1S(=O)(=O)N(CC(=O)O)c1ccc(C)c(Cl)c1` [CBK269655] is lower in “% of control remaining” value: 80.6832 for the first, 76.9572 for the second.

Compared with `Cc1cc(C(=O)NCCCC2CCOC2)c2cccc(Cl)c2n1` (stereo not drawn) [CBK282550], `C=CCn1c(Cc2csc(NC(=O)c3ccc(C)c(F)c3)n2)n[nH]c1=S` [CBK295307] is higher in “% of control remaining” value: 94.7845 for the first, 119.859 for the second.

Compared with `CC1CCCC(C)N1C(=O)C1CCCCC1C(=O)O` (stereo not drawn) [CBK026624], `O=C(N[C@@H](Cn1cc(Cl)c(=O)[nH]c1=O)C(=O)O)C1CCC1` [CBK289659] is higher in “% of control remaining” value: 100.839 for the first, 126.666 for the second.

Going from `COc1cc(C(C)=O)ccc1OCC(O)Cn1c(=O)n(-c2ccccc2)c(=O)c2ccccc21` (stereo not drawn) [CBK296677] to `CC(c1ccccc1)N1CCn2c(nc3cc(NC(=O)COc4ccccc4)ccc32)C1` (stereo not drawn) [CBK268033], the “% of control remaining” value rises from 69.6641 to 97.7084.

First: O=C(CCC1CCCC1)n1ccn(CCc2cccs2)c1=O [CBK106611]
Second: O=C(NCc1ccco1)[C@H]1CN2CCC1C[C@@H]2Cn1cc(CO)nn1 (stereo partly drawn) [CBK289080]
The “% of control remaining” value of the first is lower: 91.3299 for the first, 93.5677 for the second.

Compared with `CC(C)n1cnc2ccc(-c3noc(-c4nccc5ccccc45)n3)cc21` [CBK288617], `CC(C)Nc1ccc(S(=O)(=O)N(Cc2ccccc2)Cc2ccccc2)cn1` [CBK267307] is higher in “% of control remaining” value: 83.7005 for the first, 93.031 for the second.

Going from `CN(C)CCCNC(=O)CCc1ccccc1` [CBK263806] to `CN(C)S(=O)(=O)N(CC(=O)NCc1ccccc1Cl)c1ccccc1` [CBK269081], the “% of control remaining” value falls from 108.569 to 81.7959.

Compared with `CC(C)CNc1nc(-c2cc(C(F)(F)F)cc(C(F)(F)F)c2)cnc1N` [CBK063708], `FC(F)(F)c1cccc(OCCN2CCOCC2)n1` [CBK113289] is lower in “% of control remaining” value: 93.2314 for the first, 49.1954 for the second.

Compared with `COc1ccc2c(c1)C(NC(=O)C1CCCN(C)C1)CC(C)(C)O2` (stereo not drawn) [CBK307631], `COC(=O)[C@@H]1CN(C(=O)c2ccc(OC)cc2)CCN1C(C)=O` [CBK289578] is higher in “% of control remaining” value: 66.1606 for the first, 87.1655 for the second.

Compared with `O=C1NC2=NOCCC2=CN1[C@H]1C[C@@H](O)[C@@H](CO)O1` [CBK201192], `O=C(NCCn1cncn1)C1(c2ccccc2F)CC1` [CBK283087] is lower in “% of control remaining” value: 92.238 for the first, 89.1609 for the second.

First: CCc1ccc(CN2CCC(Oc3ccccc3F)(C(=O)O)CC2)nc1 [CBK307528]
Second: OC1CCN(CC(O)Cn2c3ccccc3c3ccccc32)CC1 (stereo not drawn) [CBK305784]
The “% of control remaining” value of the first is higher: 74.3514 for the first, 22.1339 for the second.

First: CN(C)CCN(C)c1ccc(/C=C/c2ccccc2)cn1 [CBK037026]
Second: CSCCN(C)C(=O)c1nnn(Cc2ccc(F)cc2F)c1C [CBK306468]
The “% of control remaining” value of the first is lower: 68.8382 for the first, 74.7278 for the second.

In the case of `CC(=O)Oc1cccc(N2C(=O)c3ccc(Oc4cccc(N)c4)cc3C2=O)c1` [CBK261099], the “% of control remaining” value is reported as 97.8314.
